Out of some 310,000 compounds screened, about 2,200 (0.71%) showed an effect of 50% or more. The effect is printed as a negative number. Some of the results follow.
biological target: human ether-à-go-go-related gene (hERG) potassium channel (human, UniProt Q12809); assay: primary screen, population patch clamp on CHO cells stably expressing hERG
Sequence (Q12809 whole entry, looked up): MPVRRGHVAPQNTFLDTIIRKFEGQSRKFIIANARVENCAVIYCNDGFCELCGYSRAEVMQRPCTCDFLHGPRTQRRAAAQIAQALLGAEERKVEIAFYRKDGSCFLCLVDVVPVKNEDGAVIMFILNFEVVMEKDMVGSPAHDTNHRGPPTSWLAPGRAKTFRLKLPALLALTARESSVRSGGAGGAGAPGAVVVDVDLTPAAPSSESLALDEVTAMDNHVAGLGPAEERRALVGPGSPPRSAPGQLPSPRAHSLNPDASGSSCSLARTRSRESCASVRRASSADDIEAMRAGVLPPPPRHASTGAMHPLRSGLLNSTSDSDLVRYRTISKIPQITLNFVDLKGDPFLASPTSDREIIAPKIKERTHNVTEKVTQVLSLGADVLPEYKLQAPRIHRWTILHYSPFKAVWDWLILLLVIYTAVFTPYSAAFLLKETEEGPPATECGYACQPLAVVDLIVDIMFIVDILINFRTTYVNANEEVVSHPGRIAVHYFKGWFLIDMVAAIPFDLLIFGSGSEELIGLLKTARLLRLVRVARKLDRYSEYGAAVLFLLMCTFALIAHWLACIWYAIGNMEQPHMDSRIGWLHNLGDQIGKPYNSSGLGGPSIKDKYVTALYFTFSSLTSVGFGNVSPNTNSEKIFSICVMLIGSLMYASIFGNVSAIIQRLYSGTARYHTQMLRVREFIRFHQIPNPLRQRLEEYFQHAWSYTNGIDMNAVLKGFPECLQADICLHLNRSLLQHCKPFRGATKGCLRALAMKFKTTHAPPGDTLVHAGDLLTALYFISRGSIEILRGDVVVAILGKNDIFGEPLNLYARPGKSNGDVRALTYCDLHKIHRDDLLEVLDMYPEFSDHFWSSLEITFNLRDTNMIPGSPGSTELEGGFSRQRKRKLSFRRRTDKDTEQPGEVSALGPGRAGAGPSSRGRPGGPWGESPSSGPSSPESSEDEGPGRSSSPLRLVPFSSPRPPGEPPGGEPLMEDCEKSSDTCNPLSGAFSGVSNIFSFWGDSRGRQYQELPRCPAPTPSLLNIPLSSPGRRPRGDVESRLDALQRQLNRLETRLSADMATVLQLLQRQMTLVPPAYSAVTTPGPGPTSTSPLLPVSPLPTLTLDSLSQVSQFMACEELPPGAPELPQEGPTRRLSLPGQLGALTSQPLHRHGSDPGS

Compared with `Cc1cc2ccccn2c1C(=O)c1cc([N+](=O)[O-])cc([N+](=O)[O-])c1`, `Cc1ccc(C(=O)O)cc1NC(=S)NC(=O)Cc1ccccc1` is lower in “hERG current change (%, negative = inhibition) at 1uM” value: 13.1% for the first, 10.8% for the second.

Going from `CCCCCC(=O)Cc1cc(O)cc2c1C(=O)Oc1cc(O)c(C(=O)O)c(CCCCC)c1O2` to `Cc1cccc(NC(=S)N(CCN(C)C)Cc2cc3cc(C)ccc3[nH]c2=O)c1`, the “hERG current change (%, negative = inhibition) at 1uM” value falls from 13.1% to 9.8%.

Compared with `Cc1nc(C(F)(F)F)ccc1C(=O)Nc1ccccc1N1CCOCC1`, `COc1cc(C(=O)Nc2nc(-c3ccc(C)cc3)cs2)ccc1OCC(=O)N1CCOCC1` is higher in “hERG current change (%, negative = inhibition) at 1uM” value: 13.2% for the first, 13.9% for the second.

Compared with `O=S(=O)(c1ccc2c(c1)OCCO2)N1CCC(c2nc3ccc(Cl)cc3[nH]2)CC1`, `CC1CCCN(C(=O)CN2C(=O)CSc3ccc(S(=O)(=O)N4CCOCC4)cc32)C1` (stereo not shown) is higher in “hERG current change (%, negative = inhibition) at 1uM” value: -15.7% for the first, 11.6% for the second.

Compared with `Cc1ccc(S(=O)(=O)N2CCN(Cc3cccc(F)c3)CC2)cc1`, `O=C1C2C3C=CC(C3)C2C(=O)N1CCN1CCN(S(=O)(=O)c2ccc3ccccc3c2)CC1` (stereo not shown) is lower in “hERG current change (%, negative = inhibition) at 1uM” value: 7.91% for the first, 6.34% for the second.

Going from `CCOc1ccc(-c2cc(C(=O)NCCCN3CCCC3)c3ccccc3n2)cc1` to `CC1CCCN(c2ccc(C(=O)NCc3ccccc3)cn2)C1` (stereo not shown), the “hERG current change (%, negative = inhibition) at 1uM” value falls from 10.7% to 0.803%.

Going from `Cl.O=[N+]([O-])c1ccc(O)c(Nc2ncnc3ccc(Br)cc23)c1` to `CSCC[C@H](NC(=O)c1ccc(Cl)c([N+](=O)[O-])c1)c1nc2ccccc2[nH]1`, the “hERG current change (%, negative = inhibition) at 1uM” value falls from 14.6% to 4.82%.

Going from `N#C/C(=N\Nc1ccc(Cl)cc1)C(=N)N1CCCCCC1` to `COc1ccc(OCCC(=O)OCC(=O)NC(=O)NC2CCCCC2)cc1`, the “hERG current change (%, negative = inhibition) at 1uM” value falls from 40.5% to 13.8%.

First: COCCN(C(=O)CC1C(=O)NCCN1Cc1ccc(-c2ccccc2)cc1)C(C)C (stereo not shown)
Second: COc1ccc(CCNC(=O)CN(Cc2ccc(Cl)cc2)S(C)(=O)=O)cc1OC
The “hERG current change (%, negative = inhibition) at 1uM” value of the first is higher: 14.2% for the first, 9.31% for the second.

First: COc1ccc(-c2nn(-c3ccccc3C)cc2CNC(C)c2cn(C)nc2C)cc1F (stereo not shown)
Second: Cc1ccc(-n2cc(CNCCN3CCOC3=O)c(-c3cccc(C)c3)n2)cc1
The “hERG current change (%, negative = inhibition) at 1uM” value of the first is higher: 2.8% for the first, -24.3% for the second.

First: COc1ccc(N(C(=O)COc2ccc(F)cc2)S(=O)(=O)c2ccc(C)cc2)cc1
Second: COc1ccc(N(C)C(=O)c2cc3c(s2)-c2ccccc2S(=O)(=O)C3)cc1
The “hERG current change (%, negative = inhibition) at 1uM” value of the first is higher: 15% for the first, -14.5% for the second.

Compared with `O=C(c1ccco1)N1CCN(C(=O)C(c2ccccc2)c2ccccc2)CC1`, `O=C(Nc1ccccc1)c1ccccc1CCc1ccccc1` is higher in “hERG current change (%, negative = inhibition) at 1uM” value: 12% for the first, 13% for the second.

Compared with `O=C1NC(c2ccc(-c3ccccc3[N+](=O)[O-])o2)C(C(=O)c2ccccc2)C(O)(C(F)(F)F)N1` (stereo not shown), `CN(C)C(CNC(C(=O)Nc1ccc(F)cc1)c1ccccc1)c1ccccc1` (stereo not shown) is lower in “hERG current change (%, negative = inhibition) at 1uM” value: 10.3% for the first, -18.4% for the second.

Compared with `COc1cccc(/C=N/n2c(-c3n[nH]c4c3CCC4)n[nH]c2=S)c1O`, `CCOC(=O)N1CCN(C(=O)/C(=C/c2cccc3ccccc23)NC(=O)c2ccc(OC)c(OC)c2)CC1` is lower in “hERG current change (%, negative = inhibition) at 1uM” value: 17.7% for the first, 3.69% for the second.

First: CCC(CC)C(=O)Nc1nnc(S(=O)(=O)N2CCCC2)s1
Second: NS(=O)(=O)c1cccc(NC(=O)CSc2nnc(C3CC3)n2Cc2ccccc2)c1
The “hERG current change (%, negative = inhibition) at 1uM” value of the first is higher: 2.83% for the first, 0.0501% for the second.

First: Nc1ccc(-c2nnc(-c3ccc(-c4ccccc4)cc3)o2)cc1
Second: CCOC(=O)C(=CNc1nc(-c2ccccc2)c(C(=O)Nc2ccc(-c3ccccc3)cc2)s1)C(=O)OCC
The “hERG current change (%, negative = inhibition) at 1uM” value of the first is lower: 5.86% for the first, 14.3% for the second.

Going from `COc1cc(C)nc(NC(=O)COc2ccc(Cl)cc2C)n1` to `COc1ccc(C(C)=O)cc1COC(=O)c1c(C)noc1C`, the “hERG current change (%, negative = inhibition) at 1uM” value rises from 4.17% to 4.25%.

First: CCOC(=O)N1c2ccccc2C=CC1OCC (stereo not shown)
Second: COc1ccc(C(CC(=O)O)NC(=O)Nc2ccccc2)cc1OC (stereo not shown)
The “hERG current change (%, negative = inhibition) at 1uM” value of the first is higher: 17.7% for the first, 11.6% for the second.

Compared with `Cn1c(SCc2nc3ccccc3n2CCO)nc2ccccc21`, `CCn1c(/C=C/Nc2ccccc2)[n+](CC)c2ccc(Cl)cc21.[I-]` is lower in “hERG current change (%, negative = inhibition) at 1uM” value: 21.5% for the first, -82.8% for the second.

Going from `CN(C)c1ccnc2sc3c(NCC(O)CO)ncnc3c12` (stereo not shown) to `CC1CCc2cc(F)cc3c(=O)c(C(=O)O)cn1c23` (stereo not shown), the “hERG current change (%, negative = inhibition) at 1uM” value rises from 3.7% to 12.7%.

First: O=S(=O)([O-])CCS.[Na+]
Second: CN(c1ccccc1)S(=O)(=O)c1cccc(NS(=O)(=O)c2ccc(/C=C/C(=O)O)cc2)c1
The “hERG current change (%, negative = inhibition) at 1uM” value of the first is higher: 20.3% for the first, 5.57% for the second.

`CCN1CCN(CCNC(=O)Cn2c(=O)c3cccn3c3ccc(F)cc32)CC1` was tested, and the “hERG current change (%, negative = inhibition) at 1uM” value was 15.9%.

Reference: publication PMC4336329 (PLoS ONE, 2015)
